Experimental data reported in publication PMC4336329 (PLoS ONE, 2015).
The campaign covered roughly 310,000 compounds. About 14,000 (4.5%) showed an effect of 50% or more. Effects have a minus sign here. The list shows a part of the results.

target: human ether-à-go-go-related gene (hERG) potassium channel (human, UniProt Q12809); test: primary screen, population patch clamp on CHO cells stably expressing hERG
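Note: peak tail current of the secondary pulse compared with the same well before compound.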

Chain of human ether-à-go-go-related gene (hERG) potassium channel (Q12809 whole entry, looked up): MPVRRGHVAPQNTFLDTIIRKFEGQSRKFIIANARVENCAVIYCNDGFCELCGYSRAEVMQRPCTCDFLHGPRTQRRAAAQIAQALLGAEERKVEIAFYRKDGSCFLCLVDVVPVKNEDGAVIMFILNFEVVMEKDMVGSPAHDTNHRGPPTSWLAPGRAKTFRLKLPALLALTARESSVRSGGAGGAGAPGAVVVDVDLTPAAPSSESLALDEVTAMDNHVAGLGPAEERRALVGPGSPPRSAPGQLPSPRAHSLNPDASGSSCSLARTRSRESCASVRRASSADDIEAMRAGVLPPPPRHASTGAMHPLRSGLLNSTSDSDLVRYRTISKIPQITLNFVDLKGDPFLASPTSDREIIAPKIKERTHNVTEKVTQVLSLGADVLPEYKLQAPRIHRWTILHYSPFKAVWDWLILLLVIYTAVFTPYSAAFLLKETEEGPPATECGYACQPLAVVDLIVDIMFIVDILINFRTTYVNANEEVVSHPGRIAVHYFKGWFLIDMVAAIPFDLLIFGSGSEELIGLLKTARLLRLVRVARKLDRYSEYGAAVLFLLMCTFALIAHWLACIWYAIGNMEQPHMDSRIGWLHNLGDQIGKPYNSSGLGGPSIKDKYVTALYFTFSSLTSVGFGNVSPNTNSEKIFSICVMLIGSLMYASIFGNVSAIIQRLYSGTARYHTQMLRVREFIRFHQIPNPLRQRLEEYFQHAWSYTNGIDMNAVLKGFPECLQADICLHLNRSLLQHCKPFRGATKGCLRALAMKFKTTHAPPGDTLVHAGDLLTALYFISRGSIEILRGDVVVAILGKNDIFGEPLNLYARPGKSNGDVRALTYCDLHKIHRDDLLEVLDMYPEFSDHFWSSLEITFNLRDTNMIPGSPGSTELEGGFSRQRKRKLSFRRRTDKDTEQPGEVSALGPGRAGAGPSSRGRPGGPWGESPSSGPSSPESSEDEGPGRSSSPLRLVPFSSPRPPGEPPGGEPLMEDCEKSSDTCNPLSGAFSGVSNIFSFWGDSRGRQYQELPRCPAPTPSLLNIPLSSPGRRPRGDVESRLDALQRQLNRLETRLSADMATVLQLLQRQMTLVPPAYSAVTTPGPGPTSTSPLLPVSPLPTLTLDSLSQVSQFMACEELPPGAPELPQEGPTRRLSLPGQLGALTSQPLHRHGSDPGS

| Compound | hERG current change (%, negative = inhibition) at 10uM [%] |
| --- | --- |
| COc1ccc(CNC(=O)CCN2C(=O)[C@@H]3Cc4ccccc4CN3C2=O)cc1 | -32.2 |
| COc1ccc(N2CC(C(=O)Nc3cc(C(F)(F)F)ccc3N3CCCC3)CC2=O)c(OC)c1 (stereo not drawn) | -19.5 |
| COc1cc(-c2c(-c3cc(OC)c(OC)c(OC)c3)noc2C)ccc1F | 13.6 |
| Cc1ccccc1C(=O)NCCNC(=O)c1ccccn1 | 6.75 |
| Cc1cc(S(=O)(=O)NCC(C)C)ccc1OCC(=O)NCc1ccccn1 | -22.8 |
| Cc1ccc(-c2csc3nc4cc(C(=O)NC5CCC(O)CC5)ccc4c(=O)n23)cc1 (stereo not drawn) | -2 |
| CCS(=O)(=O)N1CCC(C(=O)NCCc2ccccc2)CC1 | 0.876 |
| CC(=O)c1ccc(NC(=O)c2ccc(S(=O)(=O)c3ccccc3)cc2)cc1 | -0.407 |
| Cc1ccsc1/C=N/n1c(-c2ccccn2)n[nH]c1=S | 15.5 |
| Cc1cccc(N2CCN(C(=O)CCN3C(=S)NC(C)(C)CC3C)CC2)c1C (stereo not drawn) | -27.7 |
| COC(=O)c1c(NC(=O)/C=C/C(=O)O)sc(C)c1-c1ccc(C(C)C)cc1 | 6.58 |
| O=C(NC1CCCCCC1)C(Cc1ccccc1)n1cccc1 (stereo not drawn) | -2.45 |
| COc1ccc(Cn2c(CO)cnc2SCC(=O)Nc2cccc(NC(C)=O)c2)cc1 | 13.7 |
| O=C(Nc1ccccc1)c1snc2c(=O)[nH]cnc12 | 20.3 |
| C/C(=C/C#N)Nc1ccc(C)cc1 | 18.3 |
| CCCCn1c(N)c(N(CC(C)C)C(=O)c2cc(S(=O)(=O)N3CCOCC3)ccc2Cl)c(=O)[nH]c1=O | 22.2 |
| CCOc1ccc(Oc2nc(Nc3ccc(C)cc3)nc(N(C)C)n2)nn1 | 13.2 |
| CC(=O)Nc1ccc(N2CCN(C(=O)c3cccs3)CC2)cc1 | 2.48 |
| CC1C(=O)N2CCCc3cc(S(=O)(=O)N4CCN(c5ccccc5F)CC4)cc1c32 (stereo not drawn) | -8.8 |
| O=C(N/N=C/c1ccco1)C1CC(=O)N(c2ccccc2)C1 (stereo not drawn) | -2.52 |
| CC(=O)C1=C(C)NC(C)=C(C(C)=O)C1c1cccs1 | 5.62 |

| Compound | hERG current change (%, negative = inhibition) at 10uM [%] |
| --- | --- |
| CSC1=NNC(c2ccc(C(C)(C)C)cc2)=NN1 | -21.3 |
| Cc1nc(C)c(C(=O)NCc2ccccc2Cl)o1 | -2 |
| Cc1ccccc1N1C(=O)c2cccc3cccc(c23)C1=O | -7.92 |
| COc1ccc(-n2c(CNC(=O)COc3ccc(Cl)cc3Cl)n[nH]c2=S)cc1 | -34.2 |
| Cc1cc(Cl)ccc1OC(C)C(=O)Nc1cnn(CCCC(=O)O)c1 (stereo not drawn) | 27.1 |
| O=C(NCc1ccccn1)C1(C(F)(F)F)C/C(=C\CCO)CCCO1 (stereo not drawn) | 6.37 |
| CCN(CC)CCC(c1cc(OC)c(OC)c(OC)c1)c1c(OC)cc(OC)c2c(C)cc(=O)oc12 (stereo not drawn) | -48.5 |
| COCC(=O)Nc1ccc(S(=O)(=O)NCCc2ccccc2)cc1 | -16.5 |
| O=C(Nc1ccc(S(=O)(=O)Nc2nccs2)cc1)/C(=C/c1ccccc1Cl)NC(=O)c1ccccc1 | 8.97 |
| CCSc1nc2ccccc2n1Cc1ccccc1F | -10.6 |
| Cc1nn(C)cc1CN1CCC(CO)(CCOc2ccccc2)CC1 | -22.6 |
| O=C(c1ccc(S(=O)(=O)N2CCCCCC2)cc1)N1CCN(c2ccccc2)CC1 | -6.96 |
| CCCNC(=O)c1ccc(Cl)cc1Cl | 12.9 |
| NC(=O)C1CCN(C(=O)C2CC(=O)N(Cc3ccccc3)C2)CC1 (stereo not drawn) | -2.41 |
| O=S(=O)(c1cccs1)N1CCN(CC(O)COc2cccc(Br)c2)CC1 (stereo not drawn) | -61.1 |
| CC(C(N)=O)N1C(=O)c2cccc3cccc1c23 (stereo not drawn) | -0.963 |
| CC(Sc1ncnc2ccccc12)C(=O)Nc1ccc2c(c1)OCCO2 (stereo not drawn) | 5.25 |
| COC(=O)CSc1nnc(-c2ccco2)n1-c1ccc(C)cc1 | -24.2 |
| O=c1c2ccccc2nc(/C=C/c2ccccc2O)n1-c1ccccc1O | 17.6 |
| COc1ccc(Br)cc1C(=O)Nc1ccccc1N1CCN(C(=O)c2ccccc2)CC1 | -52.4 |
| CS(=O)(=O)c1ccc2nc(NC(=O)c3ccc(NS(=O)(=O)c4cccc([N+](=O)[O-])c4)cc3)sc2c1 | 10.6 |
